# In PubChem BioAssay AID504832 (National Center for Advancing Translational Sciences (NCATS), 2011):
# The whole screen tested about 310,000 compounds, of which about 18,000 (5.8%) were called active. The inconclusive results got no clear call from the source; some entries with a clear call stand among them for comparison. Calls follow the shape of the dose curve; as a rule, active = well fitted inhibition curve with a large enough effect; inconclusive = small, poorly fitted or top-dose-only effect, or another doubt; inactive = no such curve, though single readings can be large or run the other way. No potency is given beside an inconclusive call; the fits are too rough.
# Test: Primary qHTS for delayed death inhibitors of the malarial parasite plastid, 48 hour incubation
# Conditions: P. falciparum luciferase growth in erythrocytes; series mostly up to 28.7 µM; activity change, negative = inhibition: at the top concentration
# How it was run: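 Luminescence readout; reporter = integrated firefly luciferase in P. falciparum. RBC culture at 2% hematocrit, 0.1% parasitemia final, 37 C/5% CO2; decreased signal taken as growth inhibition.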
# % is scaled to controls: 0 for no effect and ±100 for the full control effect; potency is read from the fitted curve at half-maximal effect; tags tell the direction and shape of the fitted curve.
Structure (SMILES),Potency,"activity change, negative = inhibition"
COc1ccc(C2/C(=C(\O)c3ccc4c(c3)OCCO4)C(=O)C(=O)N2Cc2cccnc2)cc1 (centres undefined),"inconclusive [inhibitor, partial curve]",–
O=C(NCSc1ccccc1)c1ccccc1,–,inactive: 168%
COc1ccc(NC(=O)C2=Cc3cccc(OC)c3OC2)cc1,–,inactive: 29.4%
Cc1ccsc1/C=N/n1c(COc2ccccc2)n[nH]c1=S,–,inactive: 8.77%
CN1c2ccccc2-c2nc3ccccc3n2C1c1ccncc1 (centres undefined),"inconclusive [inhibitor, partial curve, poor fit]",–
COc1ccccc1CNC(=O)Cc1ccc(Br)cc1,"inconclusive [inhibitor, single point]",–
Cc1cc(=O)[nH]c2c1cnn2C(C)c1ccccc1 (centres undefined),"inconclusive [inhibitor, single point]",–
Cc1cc(NC(=O)CSc2nnc(-c3ccncc3)n2C)n(-c2ccccc2)n1,–,inactive: 2.4%
CCOC(=O)c1ccc(N2CN(CC)CNC2=S)cc1,–,inactive: 6.19%
COc1ccc(-n2c(COc3ccc(C)cc3)nnc2SCc2ccc(C#N)cc2)cc1,"inconclusive [inhibitor, full curve]",–
CCOc1ccc(NCc2ccccc2OCc2cccc(F)c2)cc1,"inconclusive [inhibitor, partial curve, poor fit]",–
CCCn1c(NC(=O)C2CCN(C(=O)c3ccccc3C)CC2)nc2ccccc21,active: 11.7 µM,–
COc1cccc(N=c2oc3ccccc3cc2-c2nc3ccccc3[nH]2)c1,"inconclusive [inhibitor, single point]",–
Oc1c(CN2CCOCC2)ccc2ccccc12,"inconclusive [inhibitor, single point]",–
O=C(N/C(=C\c1ccccc1)C(=O)N1CCOCC1)c1ccccc1Cl,"inconclusive [inhibitor, single point]",–
O=C1CC(N2CCN(c3ccc(O)cc3)CC2)C(=O)N1Cc1cccs1 (centres undefined),"inconclusive [inhibitor, single point]",–
CCOC(=O)c1c(C)nc2sc(C(=O)Nc3ccccc3)c(N)c2c1-c1ccc(OC)cc1,"inconclusive [inhibitor, partial curve, poor fit]",–
CCOC(=O)CCC(=O)NCc1ccc2[nH]c(C)cc2c1,"inconclusive [inhibitor, single point]",–
Cc1cccc2cc(-c3ccccc3)c(-c3ccccc3)c[n+]12,active: 1.85 µM,–
O=C(Nc1ccn(Cc2ccccc2F)n1)c1ccc(COc2cc(Cl)ccc2Cl)o1,"inconclusive [inhibitor, full curve, poor fit]",–
COC(CNC(=O)c1ccc2nc(-c3cccs3)c(-c3cccs3)nc2c1)OC,–,inactive: 2.47%
Cc1[nH][nH]c(=O)c1C(c1cc([N+](=O)[O-])ccc1O)c1c(C)[nH][nH]c1=O,"inconclusive [inhibitor, partial curve, poor fit]",–

Structure (SMILES),Potency,"activity change, negative = inhibition"
COc1cccc(O)c1CN1CCC(Oc2ccc(C(=O)NCc3ccccn3)cc2)CC1,"inconclusive [inhibitor, single point]",–
CCOc1ccc(S(=O)(=O)N2CCCCC2)cc1NC(=O)CCNC(=O)c1ccco1,active: 3.29 µM,–
Cc1c(C(N)=O)sc2ncn(CC(=O)N3CCC(C)CC3)c(=O)c12,–,inactive: -1.71%
CCOC(=O)N1CCN(S(=O)(=O)c2ccc3c(c2)CCN3C(=O)C2CCC2)CC1,"inconclusive [inhibitor, single point]",–
CC(CCc1ccccc1)NC(=O)COC(=O)c1ccc(NC(=O)CC#N)cc1 (centres undefined),active: 11.7 µM,–
COc1ccccc1NC(=S)N1CCN(Cc2ccc3c(c2)OCO3)CC1,–,inactive: 1.11%
Cc1ccc(-c2nnc(SCC(=O)Nc3sc(C)c(C)c3C#N)n2C)cc1,–,inactive: 22.2%
C=CCN1C(=O)/C(=C2\SC(N3CCOCC3)=NC2=O)c2cc(Br)ccc21,"inconclusive [inhibitor, single point]",–
CC(=O)c1ccc(NCC(=O)N2CCN(S(=O)(=O)c3ccccc3)CC2)cc1,"inconclusive [inhibitor, single point]",–
O=C(Nc1ccncc1)c1ccc(Cl)cc1,"inconclusive [inhibitor, partial curve]",–
CCN1CCN(c2nc3c(c(=O)[nH]2)CCCC3)CC1,–,inactive: 0.491%
COc1ccc(NC(=O)CNc2ccc(C#N)cc2)cc1,"inconclusive [inhibitor, partial curve, poor fit]",–
O=C(c1c[nH]c2ccccc12)C(Cl)c1ccccc1 (centres undefined),–,inactive: -5.75% [at 0.00184 µM]
COCCN(C(=O)COC(=O)c1cc2c(s1)CCC2)c1c(N)n(Cc2ccccc2)c(=O)[nH]c1=O,"inconclusive [inhibitor, partial curve, poor fit]",–
CCCC1C(C(=O)OCC)=C(C)NC(C)=C1C(=O)OCC,"inconclusive [inhibitor, full curve, poor fit]",–
N#Cc1c(/N=C/c2c(O)n(Cc3ccco3)c(=O)[nH]c2=O)sc2c1CCCC2,–,inactive: 50.6%
O=[N+]([O-])c1cc(/C=N/N2CCN(C3c4ccccc4-c4ccccc43)CC2)ccc1Cl,"inconclusive [inhibitor, partial curve, poor fit]",–
CC(=O)Nc1ccc(C2=NN(Cc3nnc(-c4ccccc4)o3)C(=O)SC2)cc1,"inconclusive [inhibitor, single point]",–
O=C(CN1CCN(c2ccc(O)cc2)CC1)Nc1ccc(SC(F)F)cc1,"inconclusive [inhibitor, partial curve]",–
CSc1nc2ncc3c(n2n1)CC1c2ccccc2CCN1C3=O (centres undefined),"inconclusive [inhibitor, single point]",–
CCc1ccc(NC(=O)CN2C(=O)COc3ccc(S(=O)(=O)N4CCCC4)cc32)cc1,"inconclusive [inhibitor, partial curve, poor fit]",–
Cc1cccc(-n2nc(C)c3c(C(=O)O)cc(-c4cccs4)nc32)c1,"inconclusive [inhibitor, full curve, poor fit]",–
